# Laboratory results as given in the supplement of paper PMC3334620.
# The full ranking holds about 33,000 sequences; the median of “E-score (-0.5 to 0.5)” is about -0.032, and the highest 2% start at about 0.36. Some of the results follow.
# Biological target: T1, Sko1 (UniProt Q02100)
# T1 sequence: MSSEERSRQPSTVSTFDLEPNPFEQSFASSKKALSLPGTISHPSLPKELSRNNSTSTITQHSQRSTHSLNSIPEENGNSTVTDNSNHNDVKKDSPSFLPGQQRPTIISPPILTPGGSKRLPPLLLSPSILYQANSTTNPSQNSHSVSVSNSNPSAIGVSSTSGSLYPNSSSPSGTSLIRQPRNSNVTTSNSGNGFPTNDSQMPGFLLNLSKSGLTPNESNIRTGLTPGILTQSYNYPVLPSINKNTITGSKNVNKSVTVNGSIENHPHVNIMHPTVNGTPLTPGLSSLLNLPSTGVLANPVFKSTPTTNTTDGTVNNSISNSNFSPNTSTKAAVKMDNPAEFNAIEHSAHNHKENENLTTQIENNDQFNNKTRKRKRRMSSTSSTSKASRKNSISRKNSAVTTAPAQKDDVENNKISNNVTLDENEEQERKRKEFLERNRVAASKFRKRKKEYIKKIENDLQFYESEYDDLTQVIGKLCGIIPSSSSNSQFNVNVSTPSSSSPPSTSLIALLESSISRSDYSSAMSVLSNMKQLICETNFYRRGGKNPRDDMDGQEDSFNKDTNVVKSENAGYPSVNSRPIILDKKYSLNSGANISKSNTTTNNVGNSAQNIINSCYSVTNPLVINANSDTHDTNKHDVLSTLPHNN
# Assay: PBM E-score (8-mer binding enrichment) (E-score (-0.5 to 0.5)); higher = stronger / more preferred TF binding; most listed sequences are background and not binding sites
# Settings: protein concentration: 200 nM; construct: GST-full length
# Method in brief: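 For each ungapped eight-base word taken together with its reverse complement, the Universal PBM Analysis Suite assigned an E-score. Binding data came from GST-tagged yeast transcription factors, applied at about 100-200 nM, on universal all-10-mer Agilent arrays made double-stranded by primer extension. Fluorescent anti-GST marked bound protein, and scans were normalised with masliner.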
row,Sequence,PBM E-score
1,ATGGCTGC,-0.148
2,CCTAATAC,0.192
3,ACGGAACG,0.129
4,ACTAGTTA,0.0747
5,TCAGAAGA,-0.00031
6,CTTATAAA,0.129
7,CGCAAACA,0.221
8,CCCCTTGC,-0.309
9,CAGTGGCC,-0.122
10,CAAATAGC,0.178
11,CTCCTGTA,-0.117
12,ACGACCGC,-0.194
13,CTTACTAA,0.089
14,GATGAGAC,-0.00939
15,CGGGTCAG,-0.161
16,CGCGAAAG,0.0268
17,CTGCCTTC,-0.258
18,GCTCACCC,-0.158
19,AAGGCCAA,-0.187
20,AACATCAT,0.349
21,AAGCCCAT,-0.0876
22,AGACCTAT,0.105
23,CCTATTGA,0.0576
24,CATCCAGC,-0.0664
25,CCATGGCC,-0.365

row,Sequence,PBM E-score
1,AGGCGTCC,-0.26
2,GGCGGAAC,-0.315
3,GAGCTAGA,-0.11
4,AACAAAAG,0.105
5,GACTCTTA,0.0156
6,CCCTGAAC,0.0699
7,CTCTGAGA,-0.18
8,ACAATCAT,0.154
9,ATGTCTTG,-0.0188
10,AAGCGAAG,-0.0407
11,AGTGAATG,0.148
12,TACGATCA,0.226
13,GCGCAAGA,0.151
14,ATAGCGCA,0.0138
15,CGTGTATA,0.264
16,GACATAGA,0.154
17,TACCGCCA,-0.0605
18,CTCAAAAG,-0.0771
19,CGTATGCC,0.165
20,GCGCCAGA,-0.155
21,TCCATTAA,0.00567
22,GTATCCAC,0.0437
23,TTAGCAAA,0.225
24,AAAGTGCG,0.161
25,ATTCATAG,0.0985

row,Sequence,PBM E-score
1,CAATTGGC,0.0901
2,ACCGAACA,0.00244
3,CCGGAGCA,-0.283
4,GCTTGTAC,0.0364
5,AGCTCTGC,-0.369
6,TGTACAAA,0.124
7,AGAGTTAG,-0.0289
8,CTGTATAA,0.13
9,AGCTTGCG,0.145
10,AATGTAGA,0.119
11,AAATTAAT,0.229
12,TGACGCCA,0.453
13,CCTACACC,-0.107
14,GCCTTAGA,-0.149
15,CATATGGA,0.0284
16,CGCCTATA,-0.0472
17,GAGCCGAC,-0.226
18,CTGAGAAG,-0.202
19,ATTGCCCA,-0.0532
20,ACTAACCC,-0.037
21,GACGGAGA,-0.0785
22,AGTCATCG,0.103
23,TCGTGTAA,0.116
24,AGATTCCT,-0.285
25,GCCTATAC,-0.102

row,Sequence,PBM E-score
1,GCATCTGA,-0.13
2,AAACGATT,0.119
3,CAGCGAGG,-0.233
4,CAAGTAAG,-0.0448
5,ACGAACCA,0.179
6,CCATTTGC,-0.103
7,CGGCAGAA,-0.264
8,GGTCACGA,-0.0631
9,TGGAACCA,-0.151
10,CAAGGTGA,0.0696
11,ATAACCGA,-0.132
12,GCAGTGCC,-0.263
13,ATATGTCA,0.339
14,ATGCGTAC,0.291
15,TCACAAGA,-0.00762
16,CGCCGAAC,-0.027
17,GTTTGCGA,0.166
18,CGCAGCCA,-0.106
19,ATAGCCAT,0.0219
20,AGTTGGGA,-0.165
21,GAGTGAGA,-0.164
22,ATAGCTCG,0.12
23,CTACCAGA,-0.0506
24,ACGACACA,0.205
25,ATTCGACC,-0.233

row,Sequence,PBM E-score
1,CGCGTTCC,-0.0612
2,TGTAATAA,0.28
3,CTGATGAA,0.175
4,AACCTGTC,-0.164
5,AATCATCA,0.201
6,ACAGCAGG,-0.153
7,CATGGAAA,0.163
8,GAGTGGGA,-0.192
9,CCCATTAA,-0.186
10,CCACGCGG,-0.124
11,GAAGCATA,-0.0185
12,GCTATTTA,0.0704
13,ATGACGGA,0.419
14,ACGCACTG,0.177
15,AAAAGACA,0.183
16,CTGTTTAC,0.26
17,ACTCTGCC,-0.101
18,ACCGAGAA,-0.00331
19,CTCCTAAC,-0.0207
20,AATTCATA,0.161
21,CCAGTTAA,0.101
22,CCATAGAC,-0.0864
23,GTTATCCA,-0.0027
24,AACGTAGG,0.336
25,GACCGTCC,-0.304

row,Sequence,PBM E-score
1,AACACGTA,0.459
2,CAAAGCTC,-0.218
3,CCAAACAG,-0.258
4,GAGTAGAC,0.00979
5,GAGCGCTA,-0.0474
6,GCCAGGAA,0.0363
7,AGTGACAT,0.361
8,GACGCAAA,0.347
9,GCTGACTA,-0.121
10,ACTATGCA,-0.00194
11,TAGCTTAA,0.135
12,TAATATAA,0.253
13,GAAGCGCC,-0.101
14,CTGATCGC,-0.0786
15,ATGCGGTC,-0.027
16,AATGAGTG,0.124
17,ATCACTAA,0.137
18,CCCGCCCC,0.0628
19,CCATGCGA,-0.0229
20,AAGAATCC,-0.148
21,CCTGCTAG,-0.334
22,AAGGATGC,0.0452
23,ACATCTCG,-0.0543
24,AGGCATTC,-0.267
25,GAGTACCA,0.0559

row,Sequence,PBM E-score
1,AAACACCT,0.139
2,TATCGTGA,0.168
3,AGGTGTAC,0.0338
4,AGTTCCAT,0.0951
5,AAGATGTG,-0.0256
6,GGACTACC,-0.16
7,ACGCCCAC,0.0779
8,GGCGTCTA,-0.0406
9,TTAGACAA,0.166
10,GGTTGTGA,0.153
11,GCGCTGAA,-0.216
12,ATGACCTG,0.0736
13,AAGAAAAA,0.123
14,TCCAAAGA,0.00453
15,CTACTGAG,-0.124
16,CCTCAATA,-0.0994
17,ATTACTGA,0.241
18,ACGCACCG,0.25
19,CGTTGCGA,0.0733
20,GATGGATA,-0.138
21,TAAGGCGA,-0.0493
22,ACCTTACT,0.136
